Assay results: the supplement of paper PMC8728848
Some of the results follow.

Experiments:
Assay in all cases: glycan array binding signal (z-score within array); higher = stronger binding
Conditions in all cases: glycan notation: IUPAC condensed, linker removed
[1] = molecular target: Fuc(a1-2)Gal6S(b1-3)GlcNAc6S
Procedure, shortened: (§1)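 Glycan array data were curated from 3228 arrays in the Consortium for Functional Glycomics database and kept only where the protein sequence was available. Glycan names were converted to IUPAC-condensed notation, and columns mapping to the same glycan were averaged. The binding signal is a within-array Z-score, averaged across arrays of the same protein sequence at different concentrations or buffers and across linkers. Negative Z-scores can be read as non-binding.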

[2] = molecular target: Fuc(a1-2)Gal6S(b1-4)Glc
Procedure, shortened: as §1

[3] = molecular target: Fuc(a1-2)Gal6S(b1-4)Glc6S
Procedure, shortened: as §1

[4] = molecular target: Fuc(a1-2)[Gal(a1-3)]Gal
Procedure, shortened: as §1

[5] = molecular target: Fuc(a1-2)[Gal(a1-3)]Gal(b1-3)GalNAc
Procedure, shortened: as §1

[6] = molecular target: Fuc(a1-2)[Gal(a1-3)]Gal(b1-3)GalNAc(b1-3)Gal(a1-4)Gal(b1-4)Glc
Procedure, shortened: as §1

[7] = molecular target: Fuc(a1-2)[Gal(a1-3)]Gal(b1-3)GlcNAc
Procedure, shortened: as §1

[8] = molecular target: Fuc(a1-2)[Gal(a1-3)]Gal(b1-3)GlcNAc(b1-2)Man(a1-3)[Fuc(a1-2)[Gal(a1-3)]Gal(b1-3)GlcNAc(b1-2)Man(a1-6)]Man(b1-4)GlcNAc(b1-4)GlcNAc
Procedure, shortened: as §1

[9] = molecular target: Fuc(a1-2)[Gal(a1-3)]Gal(b1-3)GlcNAc(b1-2)Man(a1-3)[Fuc(a1-2)[Gal(a1-3)]Gal(b1-3)GlcNAc(b1-2)Man(a1-6)]Man(b1-4)GlcNAc(b1-4)[Fuc(a1-6)]GlcNAc
Procedure, shortened: as §1

[10] = molecular target: Fuc(a1-2)[Gal(a1-3)]Gal(b1-3)GlcNAc(b1-3)GalNAc
Procedure, shortened: as §1

[11] = molecular target: Fuc(a1-2)[Gal(a1-3)]Gal(b1-3)GlcNAc(b1-6)GalNAc
Procedure, shortened: as §1

[12] = molecular target: Fuc(a1-2)[Gal(a1-3)]Gal(b1-4)Glc
Procedure, shortened: as §1

[13] = molecular target: Fuc(a1-2)[Gal(a1-3)]Gal(b1-4)GlcNAc
Procedure, shortened: as §1

[14] = molecular target: Fuc(a1-2)[Gal(a1-3)]Gal(b1-4)GlcNAc(b1-2)Man
Procedure, shortened: as §1

[15] = molecular target: Fuc(a1-2)[Gal(a1-3)]Gal(b1-4)GlcNAc(b1-2)Man(a1-3)[Fuc(a1-2)[Gal(a1-3)]Gal(b1-4)GlcNAc(b1-2)Man(a1-6)]Man(b1-4)GlcNAc(b1-4)GlcNAc
Procedure, shortened: as §1

[16] = molecular target: Fuc(a1-2)[Gal(a1-3)]Gal(b1-4)GlcNAc(b1-2)Man(a1-3)[Fuc(a1-2)[Gal(a1-3)]Gal(b1-4)GlcNAc(b1-2)Man(a1-6)]Man(b1-4)GlcNAc(b1-4)[Fuc(a1-6)]GlcNAc
Procedure, shortened: as §1

[17] = molecular target: Fuc(a1-2)[Gal(a1-3)]Gal(b1-4)GlcNAc(b1-3)GalNAc
Procedure, shortened: as §1

[18] = molecular target: Fuc(a1-2)[Gal(a1-3)]Gal(b1-4)GlcNAc(b1-3)[Fuc(a1-2)[Gal(a1-3)]Gal(b1-4)GlcNAc(b1-6)]GalNAc
Procedure, shortened: as §1

[19] = molecular target: Fuc(a1-2)[Gal(a1-3)]Gal(b1-4)GlcNAc(b1-6)GalNAc
Procedure, shortened: as §1

[20] = molecular target: Fuc(a1-2)[Gal(a1-3)]Gal(b1-4)[Fuc(a1-3)]Glc
Procedure, shortened: as §1

[21] = molecular target: Fuc(a1-2)[Gal(a1-3)]Gal(b1-4)[Fuc(a1-3)]GlcNAc
Procedure, shortened: as §1

[22] = molecular target: Fuc(a1-2)[Gal(a1-3)]Gal(b1-4)[Fuc(a1-3)]GlcNAc(b1-3)GalNAc
Procedure, shortened: as §1

[23] = molecular target: Fuc(a1-2)[Gal(a1-4)]Gal(b1-4)GlcNAc
Procedure, shortened: as §1

[24] = molecular target: Fuc(a1-2)[GalNAc(a1-3)]Gal
Procedure, shortened: as §1

[25] = molecular target: Fuc(a1-2)[GalNAc(a1-3)]Gal(b1-3)GalNAc(a1-3)[Fuc(a1-2)]Gal(b1-4)GlcNAc
Procedure, shortened: as §1

[26] = molecular target: Fuc(a1-2)[GalNAc(a1-3)]Gal(b1-3)GalNAc(b1-3)Gal(a1-4)Gal(b1-4)Glc
Procedure, shortened: as §1

[27] = molecular target: Fuc(a1-2)[GalNAc(a1-3)]Gal(b1-3)GlcNAc
Procedure, shortened: as §1

[28] = molecular target: Fuc(a1-2)[GalNAc(a1-3)]Gal(b1-3)GlcNAc(b1-2)Man(a1-3)[Fuc(a1-2)[GalNAc(a1-3)]Gal(b1-3)GlcNAc(b1-2)Man(a1-6)]Man(b1-4)GlcNAc(b1-4)GlcNAc
Procedure, shortened: as §1

[29] = molecular target: Fuc(a1-2)[GalNAc(a1-3)]Gal(b1-3)GlcNAc(b1-2)Man(a1-3)[Fuc(a1-2)[GalNAc(a1-3)]Gal(b1-3)GlcNAc(b1-2)Man(a1-6)]Man(b1-4)GlcNAc(b1-4)[Fuc(a1-6)]GlcNAc
Procedure, shortened: as §1

[30] = molecular target: Fuc(a1-2)[GalNAc(a1-3)]Gal(b1-3)GlcNAc(b1-3)GalNAc
Procedure, shortened: as §1

[31] = molecular target: Fuc(a1-2)[GalNAc(a1-3)]Gal(b1-3)GlcNAc(b1-6)GalNAc
Procedure, shortened: as §1

[32] = molecular target: Fuc(a1-2)[GalNAc(a1-3)]Gal(b1-4)Glc
Procedure, shortened: as §1

[33] = molecular target: Fuc(a1-2)[GalNAc(a1-3)]Gal(b1-4)GlcNAc
Procedure, shortened: as §1

[34] = molecular target: Fuc(a1-2)[GalNAc(a1-3)]Gal(b1-4)GlcNAc(b1-2)Man
Procedure, shortened: as §1

[35] = molecular target: Fuc(a1-2)[GalNAc(a1-3)]Gal(b1-4)GlcNAc(b1-2)Man(a1-3)[Fuc(a1-2)[GalNAc(a1-3)]Gal(b1-4)GlcNAc(b1-2)Man(a1-6)]Man(b1-4)GlcNAc(b1-4)GlcNAc
Procedure, shortened: as §1

[36] = molecular target: Fuc(a1-2)[GalNAc(a1-3)]Gal(b1-4)GlcNAc(b1-2)Man(a1-3)[Fuc(a1-2)[GalNAc(a1-3)]Gal(b1-4)GlcNAc(b1-2)Man(a1-6)]Man(b1-4)GlcNAc(b1-4)[Fuc(a1-6)]GlcNAc
Procedure, shortened: as §1

[37] = molecular target: Fuc(a1-2)[GalNAc(a1-3)]Gal(b1-4)GlcNAc(b1-3)Gal(b1-4)GlcNAc
Procedure, shortened: as §1

[38] = molecular target: Fuc(a1-2)[GalNAc(a1-3)]Gal(b1-4)GlcNAc(b1-3)Gal(b1-4)GlcNAc(b1-3)Gal(b1-4)GlcNAc
Procedure, shortened: as §1

[39] = molecular target: Fuc(a1-2)[GalNAc(a1-3)]Gal(b1-4)GlcNAc(b1-3)GalNAc
Procedure, shortened: as §1

[40] = molecular target: Fuc(a1-2)[GalNAc(a1-3)]Gal(b1-4)GlcNAc(b1-3)[Fuc(a1-2)[GalNAc(a1-3)]Gal(b1-4)GlcNAc(b1-6)]GalNAc
Procedure, shortened: as §1

[41] = molecular target: Fuc(a1-2)[GalNAc(a1-3)]Gal(b1-4)GlcNAc(b1-6)GalNAc
Procedure, shortened: as §1

[42] = molecular target: Fuc(a1-2)[GalNAc(a1-3)]Gal(b1-4)[Fuc(a1-3)]GlcNAc
Procedure, shortened: as §1

[43] = molecular target: Fuc(a1-2)[GalNAc(a1-3)]Gal(b1-4)[Fuc(a1-3)]GlcNAc(b1-3)GalNAc
Procedure, shortened: as §1

[44] = molecular target: Fuc(a1-2)[GalNAc(a1-4)]Gal(b1-4)GlcNAc
Procedure, shortened: as §1

[45] = molecular target: Fuc(a1-2)[GalNAc(b1-3)]Gal
Procedure, shortened: as §1

B1: PX9961J-bvu-499-24-499 (Bacteroides vulgatus) (protein)
chain: LNTDPSTAVPSDDAIKNIDDAQVALNGIYRLASAHSYYGDNYLYYADCRGEDVQARINKGAGRRVSPYYFFDVTADDNFNITLVWNQPYKVIHQANSLIEKLDAGNAGNARPEEVARIKSEALAMRGLALFDLTRLFGMPYTLDNGASLGVPIEIQTTLEDHAPERNTVAQCYEQVLKDLNDALGGLTKEKHDAYMNYWSVKALLSRVYLYMNDNENALKCAEEVINDNGGIYRLFTHDEYPSVWGKDFNSESLFEFYFTMSEPSGGSGGEGAPMVYADNVKDWNNLILTKAYLDLLNEDPEDVRHVFPHLPENAVADTLPVAAKGQPKYLIKYPGKSGSVTDAVSTVNPQDNDLCILRLSEVYLNAAEAAFKIGNTEKALTYLNAIVTRANPAKSVTSADLSLERILKERRKELVGEGHAFFDYMRNGKSVDRSGGWHLTMPEDARVIAPSDPRVALPIPQTEIDANPNIVQNPR
glycan array binding signal (z-score) [1]: 0.438
glycan array binding signal (z-score) [2]: 1.05
glycan array binding signal (z-score) [3]: -0.019
glycan array binding signal (z-score) [4]: -0.142
glycan array binding signal (z-score) [5]: 0.2
glycan array binding signal (z-score) [6]: -0.317
glycan array binding signal (z-score) [7]: -0.174
glycan array binding signal (z-score) [8]: -0.085
glycan array binding signal (z-score) [9]: -0.453
glycan array binding signal (z-score) [10]: -0.908
glycan array binding signal (z-score) [11]: -0.925
glycan array binding signal (z-score) [12]: -0.524
glycan array binding signal (z-score) [13]: -0.273
glycan array binding signal (z-score) [14]: -0.177
glycan array binding signal (z-score) [15]: 0.11
glycan array binding signal (z-score) [16]: -0.327
glycan array binding signal (z-score) [17]: -0.271
glycan array binding signal (z-score) [18]: 0.131
glycan array binding signal (z-score) [19]: -0.764
glycan array binding signal (z-score) [20]: -0.955
glycan array binding signal (z-score) [21]: -0.173
glycan array binding signal (z-score) [22]: -0.751
glycan array binding signal (z-score) [23]: -0.001
glycan array binding signal (z-score) [24]: -0.294
glycan array binding signal (z-score) [25]: 0.216
glycan array binding signal (z-score) [26]: 0.699
glycan array binding signal (z-score) [27]: -0.561
glycan array binding signal (z-score) [28]: -0.288
glycan array binding signal (z-score) [29]: -0.511
glycan array binding signal (z-score) [30]: 0.521
glycan array binding signal (z-score) [31]: -0.337
glycan array binding signal (z-score) [32]: -0.364
glycan array binding signal (z-score) [33]: -0.716
glycan array binding signal (z-score) [34]: -0.485
glycan array binding signal (z-score) [35]: -0.039
glycan array binding signal (z-score) [36]: -0.461
glycan array binding signal (z-score) [37]: 0.579
glycan array binding signal (z-score) [38]: 0.89
glycan array binding signal (z-score) [39]: -0.225
glycan array binding signal (z-score) [40]: -0.67
glycan array binding signal (z-score) [41]: -0.634
glycan array binding signal (z-score) [42]: -0.313
glycan array binding signal (z-score) [43]: 0.195
glycan array binding signal (z-score) [44]: 0.237
glycan array binding signal (z-score) [45]: -0.157
